In PubChem BioAssay AID1508624 (National Center for Advancing Translational Sciences (NCATS), 2021):
About 120 (0.25%) of roughly 48,000 compounds were called active. Inconclusive results (about 4%) are left out. Calls follow the shape of the dose curve; as a rule, active = well fitted activation curve with a large enough effect; inconclusive = small, poorly fitted or top-dose-only effect, or another doubt; inactive = no such curve, though single readings can be large or run the other way. This is one part of the list.

experiment: Primary qHTS for Identification of Small Molecule Activators of Huntingtin-Antisense Promoter Activity; details: HEK293 HTT-AS promoter firefly luciferase reporter, 24 h; series mostly up to 57.5 µM; activity change, positive = activation: at the top concentration; also: nearly all actives have a fitted effect of over 55% in size
Procedure, shortened: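 Quantitative HTS used concentration series of up to 57.5 uM final on HEK293 luciferase reporter cells, 24 h at 37 degrees C. Readout was Dual-Glo firefly luminescence.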

Activity change, positive = activation, inactive:
CCCCn1cc(S(=O)(=O)c2ccccc2)c(=O)c2cc(F)c(N3CCN(CCC)CC3)cc21 -8.06%
CCOCCn1ccc2c(OCC(=O)NCc3ccc(F)cc3)cccc2c1=O -14.4%
COCCn1c(=O)[nH]c2cc(C(=O)N3CCN(c4ccc(Cl)cc4)CC3)ccc2c1=O -43.5%
Cc1ccc(CN2CCC(CNC(=O)c3cnn(-c4ccccc4)c3C3CCN(C(=O)OC(C)(C)C)CC3)CC2)cc1 -7.55%
Cc1ccc2nc(NC(=O)c3nc(SCc4ccccc4F)ncc3Cl)sc2c1 0%
Cc1ccc2c(c1)C(=O)C(=O)N2Cc1ccc(OCCC(C)C)cc1 -10.8%
COc1ccc(NC(=O)c2cc(C(C)=O)n3ccccc23)cc1 4.4%
COc1ccc(NC(=O)c2oc3ccc(S(=O)(=O)N4CCCCC4)cc3c2C)cc1Cl 0%
COc1cc2c(=O)n(Cc3ccco3)c(=O)n(CC(=O)Nc3ccc(F)cc3)c2cc1OC -23.7%
CCOc1cc2[nH]c(=O)n(Cc3ccc(C(=O)N4CCN(c5ccccc5)CC4)cc3)c(=O)c2cc1OCC -21.6%
CSc1ncc(Cl)c(C(=O)Nc2cc(C(F)(F)F)ccc2Cl)n1 5.01%
Cc1nc(-c2ccc(Cl)cc2)sc1CCNC(=O)C(=O)Nc1ccc2c(c1)OCCO2 -15.7%
O=C(O)c1ccc(NCc2nc3ccccc3n2CCOc2ccccc2Cl)cc1 -13.5%
O=C(CSc1nc(=O)n(Cc2cccnc2)c2c1CCC2)Nc1cccc(Cl)c1 -40.8%
COc1cc(C(=O)N2CCN(CCc3ccncc3)CC2)cc(OC)c1OC -1.19%
COc1cccc(-n2c(=O)c3c(C)c(C(=O)N(C)C)sc3n(Cc3cccc(C)c3)c2=O)c1 -15.9%
Cc1ccc(NC(=O)Cn2c(=O)n(CC3CCC(C(=O)NC(C)C)CC3)c(=O)c3sccc32)cc1 (stereo unspecified) -22.1%
COc1ccc(-c2nc(C)c(CCNC(=O)C(=O)Nc3ccccc3F)s2)cc1 0.482%
COc1ccccc1-n1nc(-c2ccccc2)c2cnc3c(F)cc(F)cc3c21 -20.6%
COc1ccc(C(CNC(=O)COc2cc(C)cc(C)c2)N2CCCCC2)cc1 (stereo unspecified) 5.37%
CCc1cc(S(=O)(=O)O)c2cc(C(C)C)cccc1-2 -8.46%
COc1ccc(CCN2CCC(CNC(=O)c3cnn(-c4ccc(C)cc4)c3C3CCN(C(=O)OC(C)(C)C)CC3)CC2)cc1 -16%
COc1ccc(C2CC(=O)N(Cc3ccccc3C)c3c2c(C)nn3-c2nc(C)cc(C)n2)c(OC)c1 (stereo unspecified) -23.7%
COc1ccc(-c2nc3c4ccccc4n(CC(=O)Nc4ccc(C(C)C)cc4)c(=O)n3n2)cc1 9.55%
COc1ccc(NC(=O)CSC2=Nc3ccccc3C3=NC(CC(=O)NCc4ccccc4OC)C(=O)N23)cc1Cl (stereo unspecified) -12.8%
Cc1ccccc1-n1c(SCC(=O)Nc2ccc(Cl)cc2Cl)nc(O)cc1=O -23.3%
Cc1cccc(N(C)S(=O)(=O)c2ccc(-c3cc(C)no3)s2)c1 -43.8%
OCCOCCN1CCN(C2=Nc3ccccc3Sc3ccccc32)CC1 -5.39%
CCc1sc(Nc2cccc(C)c2)nc1-c1cc2cccc(OC)c2oc1=O -2.61%
Cc1ccc(S(=O)(=O)N2CCc3cc(C(=O)N(C)Cc4ccccc4)ccc32)cc1 -32.4%
CC(=O)N1CCc2c(sc3c2c(=O)n(-c2ccc(F)cc2)c(=O)n3Cc2cc(C)ccc2C)C1 -7.29%
COc1ccc(-c2noc(-c3ccc(N4CCN(C)CC4)c([N+](=O)[O-])c3)n2)cc1 23.9%
COc1ccc(S(=O)(=O)c2c(O)c(C)cc(NS(=O)(=O)c3ccc(Cl)cc3)c2C(C)C)cc1 -33.5%
Cn1cnc(S(=O)(=O)N2CCC(C(=O)Nc3ccc(F)cc3F)CC2)c1 -1.41%
Cc1ccc(-c2noc(CNC(=O)COc3cc(C)c(Br)c(C)c3)n2)cc1 0.0015%
CCOCCc1nnc(NC(=O)C(=O)c2cc(C)n(-c3cccc(C)c3)c2C)s1 0%
O=C(NC1CCCCC1)c1ccc2c(c1)N(Cc1cccc(F)c1)C(=O)c1ccccc1S2 -14.3%
O=C(NC1CCCCC1)c1ccc2c(c1)sc1nc(-c3ccc(F)cc3)cn12 -2.13%
Cc1ccc(-n2nc(C(=O)N3CCN(c4ccc(F)cc4)CC3)c(=O)n(C)c2=O)cc1 -9.95%
COc1ccc2nc(NC(=O)c3nc(S(=O)(=O)Cc4ccccc4F)ncc3Cl)sc2c1 -15.4%
Cc1ccc(NC(=O)CSc2nc3ccc(Br)cc3[nH]2)c(C)c1 -31.1%
Cc1ccc(N2CC(C(=O)NCCS(=O)(=O)N3CCN(c4ccccc4F)CC3)CC2=O)cc1 (stereo unspecified) -6.57%
CN(C)CCN(C(=O)c1ccco1)c1nc2c(F)cc(F)cc2s1 1.82%
CC1CCN(C(=O)CSc2c3c(nc4ccc(Cl)cc24)CCCC3)CC1 -35.6%
CC1=C(c2ccc(C(C)C)cc2)S(=O)(=O)NC1=NCc1ccccc1C -19.6%
Cc1nc2c3ccccc3nc(NNC(=O)CCC(=O)N3CCN(c4cccc(Cl)c4)CC3)n2n1 -18.4%
Cc1cccc(NC(=O)CSc2nc3ccccc3nc2N2CCC(C)CC2)c1 -23.2%
CCOc1ccc(N(Cc2ccccc2)C(=O)c2nc(SCC)ncc2Cl)cc1 -49.4%
COc1ccc(S(=O)(=O)N(CC(=O)Nc2ccc(F)c(Cl)c2)c2ccc(C)cc2)cc1OC -24.2%
O=C(COc1ccc(F)cc1)Nc1nnc(S(=O)(=O)N2CCc3ccccc32)s1 -51.1%
COc1cccc2c1C(=O)c1c(O)c3c(c(O)c1C2=O)C[C@@](O)(C(=O)CO)C[C@@H]3O[C@H]1C[C@H](N)[C@H](O)[C@H](C)O1 -32.9%
Cc1ccc(Nc2cc(C)nc(-n3nc(C)cc3C)n2)cc1 -33.3%
O=C(Nc1ccc(OC(F)(F)F)cc1)C1CCN(S(=O)(=O)c2ccc3[nH]c(=O)ccc3c2)CC1 -33.6%
COCCNc1ccc(-c2nc(-c3ccncc3)no2)cc1[N+](=O)[O-] 17.3%
Cc1cc(C(=O)NOCCO)c(Nc2ccc(I)cc2F)n(C)c1=O -24.4%
COc1cc(NC(=O)CSc2nc(-c3cccs3)cc(C(F)(F)F)n2)cc(OC)c1OC -16.7%
COc1cccc(-n2c(SCC(=O)N3CCc4ccccc43)nc3c([nH]c4ccccc43)c2=O)c1 -15.6%
O=C(Nc1ccc(F)cc1F)c1cccc2c1C(=O)N(C1CCCCC1)C2 -11.3%
Cc1cccc(CSc2nc3c(c(=O)[nH]2)CCC3)c1 -24.4%
CCc1ccc(C2CC(=O)c3c([nH]c(C(=O)OC4CCC(C)CC4)c3C)C2)cc1 (stereo unspecified) -16.3%
COc1ccc(S(=O)(=O)NCc2cccn2Cc2cccc(C)c2)cc1Cl -50.6%
COc1ccc(-c2cc(C(F)(F)F)nc(SCC(=O)N3CCCCC3)n2)cc1OC -20.1%
CCS(=O)(=O)N1CCc2cc(C(=O)N3CCN(c4ccc(OC)cc4)CC3)ccc21 -5.8%
COc1ccc(OC)c(S(=O)(=O)N2Cc3ccccc3CC2C(=O)Nc2ccc(C)cc2C)c1 (stereo unspecified) -30.3%
CCc1cccc(C)c1NC(=O)C(CC)n1nc(C)c2c(C)n(-c3ccccc3)nc2c1=O (stereo unspecified) -8.71%
COc1ccc(-c2nc(SCC(=O)Nc3ccccc3)c(-c3ccc(F)cc3)[nH]2)cc1OC -15.4%
O=C(Cn1c(=O)n(-c2ccccc2)c(=O)c2ccc(C(=O)NCc3ccc4c(c3)OCO4)cc21)Nc1ccc(F)cc1 -44.7%
COC(=O)c1ccc(CSc2nc3c([nH]c4ccccc43)c(=O)n2-c2ccc(F)cc2)o1 -34.8%
CCc1cccc(NC(=O)Cn2c(=O)n(-c3ccccc3C)c(=O)c3c2c2cc(C)ccc2n3C)c1 -34.4%
COc1cc(OC)c(NC(=O)Cn2c(=O)c(C(F)(F)F)nc3ccccc32)cc1Cl -5.06%
Cc1ccc(CNC(=O)c2ccc(CS(=O)(=O)Cc3ccc(F)cc3)o2)cc1 -21%
CCCCc1nn2c(=O)cc(COC(=O)c3cccc(NC(=O)c4cccc(Cl)c4)c3)nc2s1 21.1%
Cc1ccccc1CN1CCc2nc(N3CCN(c4ncccn4)CC3)ncc2C1 -25.5%
COc1ccc(CCCc2nnc(SCC(=O)Nc3cccc(C)c3)o2)cc1C 20.8% [at 11.5 µM, percent change from vehicle, -100% = no light]
CCCCN(C)CCCNC(=O)Cn1ncc2c3ccccc3n(Cc3cccc(Cl)c3)c2c1=O -18.6%
Cc1cccc(N2CCN(S(=O)(=O)c3cn(C)c(C)n3)CC2)c1C -22.2%
CCOc1ccccc1C(=O)Oc1c(S(=O)(=O)c2ccc(C)cc2)c(C)nn1-c1ccccc1 -30.8%
CC(=O)Oc1ccc(C)cc1 2.81%
COc1ccc(-c2cc(OC(=O)c3ccc(F)cc3)c3c(C)oc(C)c3c(=O)c2)cc1OC -14.9%
COc1ccc(-c2noc(CSc3nnc(-c4ccccc4)n3-c3ccc(F)cc3)n2)c(OC)c1 -27.2%
Cc1ccc(Cc2c(C)nn(-c3nc(C)c(C(=O)N4CCCCC4C)s3)c2C)cc1 (stereo unspecified) -6.88%
COc1ccc(NC(=O)C2CCCN(S(=O)(=O)c3c(C)n[nH]c3C)C2)cc1OC (stereo unspecified) -28.3%
Cc1cccc(NC(=O)CN2c3ccccc3S(=O)(=O)c3ccccc32)c1C -25.7%
CCC(=O)N1CCc2cc(S(=O)(=O)NC(C(=O)NCCc3ccc(Cl)cc3)C(C)C)ccc21 (stereo unspecified) 18.3%
Cn1nnnc1SCCNCc1ccc(OCc2ccccc2)cc1 -0.983%
COC(=O)c1sccc1S(=O)(=O)N(CC(=O)NCc1ccccc1)c1ccc(C)c(C)c1 -33.7%
COc1ccc(NC(=O)CSc2nnc3scc(-c4ccc(Cl)cc4)n23)cc1 1.81%
CCOC(=O)c1c(C)c(-c2ccccc2)n(CC(=O)Nc2cccc(F)c2)c1C -17.9%
CCOc1ccc(NC(=O)CCS(=O)(=O)c2ccc(Br)s2)cc1 -20.6%
Cc1cccc(NC(=O)CN2C(=O)COc3ccc(S(=O)(=O)N4CCC(C)CC4)cc32)c1C -24.4%
CCN(CC)CCCNC(=O)c1nn(-c2ccc(OC)c(Cl)c2)c(=O)c2c1c1ccccc1n2C -9.31%
